Experimental data as given in PubChem BioAssay AID686970 (National Center for Advancing Translational Sciences (NCATS), 2013).
The campaign covered roughly 360,000 compounds. About 6,000 (1.7%) were called active. Inconclusive means that the source gave no clear call. Such entries were picked first, then a sample of the others. The call rests on the fitted dose curve; in most records, active means well fitted cell-killing curve with a large enough effect; inconclusive means small, poorly fitted or top-dose-only effect, or effect the other way; inactive means flat fitted curve, though single readings scatter. Potencies of inconclusive entries are left out as doubtful fits.

assay: qHTS for induction of synthetic lethality in tumor cells producing 2HG: qHTS for the HT-1080-NT fibrosarcoma cell line; conditions: HT-1080-NT fibrosarcoma viability, CellTiter-Glo ATP luminescence, 48 h; activity, negative = less viability: at 46.1 µM (top of the series) unless noted;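 further: NT is the 2HG producing partner of a matched IDH1 knockdown line; nearly all actives have a fitted effect of over 55% in size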;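 on activity, negative = less viability: 0% = DMSO-treated cells and -100% = media-only wells without cells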
Summary of the method: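 A 48-hour cytotoxicity screen used HT-1080-NT cells plated 2 hours before compound delivery. ATP-based CellTiter-Glo luminescence measured viability, normalized to DMSO and no-cell controls.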
Potency means the concentration at half of the fitted maximal effect; tags describe the fitted curve by direction and shape.

Compound	Potency	activity, negative = less viability
Nc1ccccc1-c1nnc(-c2ccc(-c3ccccc3)cc2)o1	inconclusive [cytotoxic, single point]	–
Oc1ccc(/C(Cc2ccccn2)=N\Nc2ccccc2)c(O)c1	inconclusive [cytotoxic, partial curve]	–
CC(C)(C)C(=O)/C(=C/c1ccncc1)n1cncn1	active: 7.31 µM	–
O=C(CCCN1C(=O)C(c2ccccc2)Oc2cccnc21)NCc1ccccc1F (stereo unspecified)	–	inactive: -0.603%
O=C(OCC12CC3CC(CC(C3)C1)C2)c1ccc(NCc2cc(O)ccc2O)cc1	inconclusive [cytotoxic, single point]	–
Cc1ccc(NC2=C/C(=N/S(=O)(=O)c3cccs3)c3ccccc3C2=O)cc1	active: 2.91 µM	–
CCOC(=O)CNC(=O)CSc1ncnc2c1cnn2Cc1ccccc1	inconclusive [cytotoxic, single point]	–
COc1cc(C(=O)O/N=C(\N)Cc2ccc([N+](=O)[O-])cc2)cc(OC)c1OC	inconclusive [cytotoxic, single point]	–
COc1cc(CNCc2ccccn2)ccc1OCc1ccc(Cl)cc1Cl	active: 23.1 µM	–
Cc1ccc(C(=O)c2no[n+]([O-])c2C(=O)c2ccc(C)cc2)cc1	inconclusive [cytotoxic, single point]	–
Oc1ccc(Br)cc1CNc1cccc2cccnc12	inconclusive [cytotoxic, single point]	–
CC1(C(=O)NCc2ccco2)Cc2c(-c3cccc(C(N)=O)c3)ccnc2O1 (stereo unspecified)	inconclusive [cytotoxic, full curve]	–
S=C(Nc1ccc(Cl)cc1)NC1CC2CCC(C1)N2Cc1ccccc1 (stereo unspecified)	inconclusive [cytotoxic, partial curve]	–
CCCN1CCc2c(sc(NC(=O)c3ccc(S(=O)(=O)N(C)c4ccccc4)cc3)c2C(=O)NC)C1	inconclusive [cytotoxic, single point]	–
Cc1ccc(N2CN=C(c3ccccc3)NC2=S)cc1	inconclusive [cytotoxic, single point]	–
CC[C@H](C)[C@H]1O[C@]2(CC[C@@H]1C)C[C@@H]1C[C@@H](CC=C(C)[C@@H](O[C@H]3C[C@H](OC)[C@@H](O[C@H]4C[C@H](OC)[C@@H](O)[C@H](C)O4)[C@H](C)O3)[C@@H](C)C=CC=C3CO[C@@H]4[C@H](O)C(C)=C[C@@H](C(=O)O1)[C@]34O)O2	active: 2.91 µM	–
O=S(=O)(Cc1ccccc1)c1cnc2ccccc2n1	inconclusive [cytotoxic, single point]	–
Cc1cc(=O)n2[nH]c(N)c(N=Nc3ccccc3F)c2n1	inconclusive [cytotoxic, partial curve]	–
Cc1ccc(S(=O)(=O)N(CC(=O)N=Nc2c(O)[nH]c3ccccc23)c2ccc(C)c(C)c2)cc1	inconclusive [cytotoxic, single point]	–
COc1cccc(CNc2nc3cc(-c4ccc(C(=O)N5CCN(C)CC5)cc4)sc3c(=O)n2C)c1	active: 23.1 µM	–
Nc1nn(-c2ccccc2)c(N)c1N=Nc1cccc(F)c1	active: 16.4 µM	–

Compound	Potency	activity, negative = less viability
CN(C)CCCNC(=O)/C(=C\c1ccc(-c2cccc([N+](=O)[O-])c2)o1)NC(=O)c1ccccc1	inconclusive [cytotoxic, partial curve]	–
CC(OC(=O)CN1C(=O)NC2(CCCC2)C1=O)c1ccc(F)cc1 (stereo unspecified)	–	inactive: 3.66% [at 9.24 µM]
Cc1cc(N2CCN(S(=O)(=O)c3ccc(Cl)cc3)CC2)c2ccccc2n1	inconclusive [cytotoxic, single point]	–
O=C(Cn1sc2ccccc2c1=O)Nc1ccc(Br)cc1	inconclusive [cytotoxic, single point]	–
COc1ccc(OCC(=O)Nc2cc(NC(=O)c3ccco3)ccc2OC)cc1	–	inactive: -1.67%
Cc1ccc(NC(=O)Cn2nnc(C(=O)NCc3ccco3)c2N)cc1	inconclusive [cytotoxic, single point]	–
Cc1ccc(/C(O)=C2\C(=O)C(=O)N(CC(C)O)C2c2ccccn2)cc1 (stereo unspecified)	–	inactive: 14.7%
COc1ccc(S(=O)(=O)N2CCc3ccccc32)cc1C(=O)Nc1ccc(C(N)=O)cc1	inconclusive [cytotoxic, single point]	–
COc1ccccc1-c1nnc(Sc2nc([N+](=O)[O-])nn2C)o1	active: 12.6 µM	–
Cc1nn(Cc2ccccc2)c2sc(C(=O)N3CCN(Cc4ccc5c(c4)OCO5)CC3)cc12	inconclusive [cytotoxic, single point]	–
CC(=O)c1ccc(-c2cccc([C@H]3[C@@H]4C=CC[C@@H](C)[C@@H]4C(=O)N3Cc3ccccc3)c2)cc1	inconclusive [cytotoxic, single point]	–
CCOC(=O)[C@]12CCC=C1N(Cc1ccco1)C(=O)[C@H](CC(=O)N1CCN(C(=O)C3CC3)CC1)C2	–	inactive: 12.3%
CC(=O)N1C(=O)/C(=C2\SC(=S)N(NS(=O)(=O)c3ccc(C)cc3)C2=O)c2ccccc21	–	inactive: -1.52%
CCNc1nc(NC(C)C)nc(-c2ccncc2)n1	inconclusive [rising, single point]	–
O=[N+]([O-])c1ccc(/C=N/N/C(=N/c2ccccn2)c2ccccn2)cc1	inconclusive [cytotoxic, single point]	–
CSc1nc(N(C)NC(=O)c2ccc(Cl)cc2)c2ccccc2n1	active: 0.731 µM	–
O=C(Cn1cnc2c(nnn2Cc2ccc(Cl)cc2)c1=O)NCc1ccco1	inconclusive [cytotoxic, single point]	–
COc1ccc(/C=N/NC(=O)c2nn(-c3ccc(Cl)cc3)c(=O)c3c(N)scc23)cc1	–	inactive: -15.4%
CCCCCCCC(=O)NNC(=O)c1c(O)c2ccccc2n(CC)c1=O	–	inactive: 11.5%
O=C(c1cccc(Cl)c1)c1nn(-c2ccccc2)c(=O)cc1C(F)(F)F	inconclusive [cytotoxic, single point]	–
